# Test results as given in PMC7819943, “Rice protein-binding microarrays: a tool to detect cis-acting elements near promoter regions in rice”.
# The list shows a part of the results.
# Biological target: T1, OsWOX13 (Oryza sativa, UniProt Q5QMM3 1-267)
# T1 sequence: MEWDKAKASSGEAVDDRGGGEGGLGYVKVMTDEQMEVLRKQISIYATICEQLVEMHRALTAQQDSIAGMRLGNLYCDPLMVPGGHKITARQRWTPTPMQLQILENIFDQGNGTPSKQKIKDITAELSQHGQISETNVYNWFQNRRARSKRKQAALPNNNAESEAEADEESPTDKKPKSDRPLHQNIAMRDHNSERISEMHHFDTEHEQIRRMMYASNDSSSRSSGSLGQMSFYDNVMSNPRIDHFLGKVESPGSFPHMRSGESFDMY
# Experiment: protein-binding microarray (RPBM); PBS, 2% BSA, 51.3 ng/ul salmon testes DNA, 50 uM zinc acetate, 200 nM TF, 25 C, 1 h; high values mean tight binding
# Settings: protein: recombinant; tags: N-terminal polyhistidine and DsRed monomer fusion (pET32a); label: CyDye5-dUTP incorporated in the synthesized complementary strand; 3' TTTTT single-stranded linker to array surface; dsDNA, one strand shown
# How it was run: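 Using Ni–NTA, transcription factors fused N-terminally to polyhistidine and DsRed were purified after expression in E. coli BL21-CodonPlus. These were incubated at 200 nM with a blocked, double-stranded custom Agilent array for 1 h at 25 °C in a buffer containing 50 µM zinc acetate, and the array was washed. The binding signal is per-feature fluorescence intensity (arbitrary units) on an Axon 4000B scanner.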
row,Sequence,binding signal
1,TTGATTGGGTAACAAAAGGGAACAATGGCTTATACTTTAACGGAGTCACCTAGTGCAG,16700 fluorescence intensity (a.u.)
2,TAAACAGACGTGCAATTAAGGGTCGAAGGATACTCGCTTTCGGAGTCACCTAGTGCAG,6170 fluorescence intensity (a.u.)
3,AGCAGTTTAGATTGGATACATATCAAAATTTATCTTGCCACGGAGTCACCTAGTGCAG,28200 fluorescence intensity (a.u.)
4,GTTTCTCTAATTTATTTTGTGATAGCGCTTCAACCAACTCCGGAGTCACCTAGTGCAG,22000 fluorescence intensity (a.u.)
5,CTCCTCCAAATTAAATCAACCAGCAGCAAACCATCCAGTACGGAGTCACCTAGTGCAG,3380 fluorescence intensity (a.u.)
6,GATACATGCAAACAATGTGATTGGAAGGTTTGATAATATACGGAGTCACCTAGTGCAG,8200 fluorescence intensity (a.u.)
7,TTTGAGTTTTAAATAGATTAGTGTTTGAGAGGGAGCCCTTCGGAGTCACCTAGTGCAG,3830 fluorescence intensity (a.u.)
8,TCTCCTTAATTAGTCATTGCAATGCTCCTTGCCTTGTATTCGGAGTCACCTAGTGCAG,24500 fluorescence intensity (a.u.)
9,TTCTCAATTTTCTTTTAATATATTGTTAAACGTGACCGTTCGGAGTCACCTAGTGCAG,9240 fluorescence intensity (a.u.)
10,TTTAATTTAATTCGAGGAGGAGAAGAAGCAGAGGAGGAGGCGGAGTCACCTAGTGCAG,3920 fluorescence intensity (a.u.)
11,TACAACAATAATTTTGATCAAAGATTAAGCTATTTTGACTCGGAGTCACCTAGTGCAG,9830 fluorescence intensity (a.u.)
12,ATTAAATTTAATTCATATTGTACTTGAATGTTGGTCAAAACGGAGTCACCTAGTGCAG,23400 fluorescence intensity (a.u.)
13,AAATAATTACACGTGACCAAAACAATACTACTACGACGACCGGAGTCACCTAGTGCAG,18200 fluorescence intensity (a.u.)
14,ATATATATATATATATATATATATCACTTTTCAATAAATACGGAGTCACCTAGTGCAG,28400 fluorescence intensity (a.u.)
15,GTGTGAAATTGACATGTGGGTCCCATGGGTATTATTATTACGGAGTCACCTAGTGCAG,8480 fluorescence intensity (a.u.)
16,ATCCCAAAATAATGTGTTCGGGTGGGCGGGCGGGAAATATCGGAGTCACCTAGTGCAG,4570 fluorescence intensity (a.u.)
17,TAAAATAATTAATACTTAATTATTATATGCTAATAGTTTACGGAGTCACCTAGTGCAG,31900 fluorescence intensity (a.u.)
18,TGACTACATCACCGTGCATTTAATTACTTTCTGTACTTCACGGAGTCACCTAGTGCAG,4510 fluorescence intensity (a.u.)
19,TTTGATAAAATAGATTAATACGATATATACCACTCCACAACGGAGTCACCTAGTGCAG,16300 fluorescence intensity (a.u.)
20,AATGATGATTGATGGGTCATGGCACAAGGACGCTAAACCGCGGAGTCACCTAGTGCAG,40700 fluorescence intensity (a.u.)
21,TTAGTAATTTGTTGCCTCCTTAAGCAAATTTGAATTGGATCGGAGTCACCTAGTGCAG,10200 fluorescence intensity (a.u.)

row,Sequence,binding signal
1,TTTAATTAGATTCATCATGAAATATGTCTTTATTGCATTTCGGAGTCACCTAGTGCAG,32300 fluorescence intensity (a.u.)
2,TATGTTGCCTATCAATCAAATAATAATTAGCTGTAAATACCGGAGTCACCTAGTGCAG,33800 fluorescence intensity (a.u.)
3,TAATCTTAAATTTATAATTTAAAGATGTTTTCATCGTAATCGGAGTCACCTAGTGCAG,8740 fluorescence intensity (a.u.)
4,GACTAATTAATAATTAGTTAATTGACTAATCAGGATAATTCGGAGTCACCTAGTGCAG,46800 fluorescence intensity (a.u.)
5,TGAGAGTGATTGGGGTTTCACATCTTTTATGCCTTTGAGTCGGAGTCACCTAGTGCAG,45200 fluorescence intensity (a.u.)
6,TCTGATGGACTTTTCGCTCCTCCCTCTTGTTATAAATAGGCGGAGTCACCTAGTGCAG,13600 fluorescence intensity (a.u.)
7,TTATCAATCTACATCGTTATAATTTAGTTCCACCGTAATTCGGAGTCACCTAGTGCAG,19800 fluorescence intensity (a.u.)
8,ATAAATATTAATTAAACTTTAAAAGAAGAAAATCTCATAGCGGAGTCACCTAGTGCAG,13700 fluorescence intensity (a.u.)
9,GATCTGCAATTGGACCATGATTGTTGTCTTTGGTCATCAGCGGAGTCACCTAGTGCAG,5900 fluorescence intensity (a.u.)
10,AGTGTAATTAATGGGCTTCTTTTCGATGGCTCTTGTTGGGCGGAGTCACCTAGTGCAG,22600 fluorescence intensity (a.u.)
11,AAAACTTAATTAAGCACACGTTACTACCATCTCATTTTGCCGGAGTCACCTAGTGCAG,25500 fluorescence intensity (a.u.)
12,ACTTAGATGATATGCAATAAACAGGTGGACATCCACTCGACGGAGTCACCTAGTGCAG,9990 fluorescence intensity (a.u.)
13,CGTCCCATCACTAATCTGATAAATCTTGCAGAGATTAACGCGGAGTCACCTAGTGCAG,4410 fluorescence intensity (a.u.)
14,AATAACTAATTGTACATATTACGACTAATTTGCGAGATGACGGAGTCACCTAGTGCAG,35000 fluorescence intensity (a.u.)
15,TTGTAATTGTCGAATCGTCTCTAGATTTATATATATAAAGCGGAGTCACCTAGTGCAG,17700 fluorescence intensity (a.u.)
16,TTTATTCCGAATATTAATTAATCTCGTATTGGGTTCTTATCGGAGTCACCTAGTGCAG,5880 fluorescence intensity (a.u.)
17,ACACTAATTACAAAACCCATTTCATAACATTGGACTAATTCGGAGTCACCTAGTGCAG,28900 fluorescence intensity (a.u.)
18,GCGCAGGCAATCAATGGCGGCAGGGCAGAGTGACGAGGAGCGGAGTCACCTAGTGCAG,3190 fluorescence intensity (a.u.)
19,ATTATTATATAATAATTTATTTGTCTTGGTACGCTGTTGGCGGAGTCACCTAGTGCAG,5830 fluorescence intensity (a.u.)
20,CAGCTGTTCTAATGATTTGAGATATATCAAACTTGTCAAACGGAGTCACCTAGTGCAG,3250 fluorescence intensity (a.u.)
21,TACCCAATTCAAATTTGAATTTGAATTATATCTGATTCAACGGAGTCACCTAGTGCAG,4680 fluorescence intensity (a.u.)
